Drawing on the supplement of paper PMC9446081, this text covers relative growth for 59 molecules.

Among all 39,000 compounds or so, about 220 (0.56%) showed activity. The list shows a part of the results.
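Further: static incubation at 37 °C against the wild-type strain, values averaged over two biological replicates.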

This assay deals with Escherichia coli K-12 BW25113. Kind of assay: relative growth (OD600 normalised to plate interquartile mean) (fraction); higher = less growth inhibition, active = 0.2 or less. To be noted: 50 µM; LB; incubation time: overnight (16-24 h).
Take `CC(C)NC(=O)Nc1ccc2c(c1)CC(=O)N([C@H](C)CO)C[C@@H](C)[C@@H](CN(C)C(=O)Nc1ccc3c(c1)OCO3)O2`: the relative growth is inactive: 0.98. As to `O=C(C[C@@H]1CC[C@@H]2[C@H](COC[C@@H](O)CN2S(=O)(=O)c2cccc(F)c2)O1)NCCCN1CCOCC1`, the relative growth is inactive: 0.996. To `CN(C)Cc1cn(CC[C@@H]2CC[C@H](N)[C@H](CO)O2)nn1` belongs inactive: 0.991. With `CNC[C@@H]1OCCCC[C@H](C)Oc2ccc(NC(=O)Nc3ccc(C(F)(F)F)cc3)cc2C(=O)N([C@H](C)CO)C[C@@H]1C`, the relative growth is inactive: 0.832. To `C[C@H]1CN([C@@H](C)CO)C(=O)c2cc(NC(=O)Cn3cnnn3)ccc2O[C@H]1CN(C)Cc1ccc(C(=O)Nc2ccccc2N)cc1` belongs inactive: 1; to `C[C@@H]1CN([C@@H](C)CO)C(=O)c2cc(NC(=O)Nc3ccc(C(F)(F)F)cc3)ccc2O[C@@H]1CN(C)C(=O)Nc1ccc(F)cc1`, inactive: 1.01; to `C[C@H]1CN([C@@H](C)CO)C(=O)c2cccc(NS(=O)(=O)c3cccs3)c2O[C@H]1CN(C)Cc1ccc(Cl)c(Cl)c1`, inactive: 1.01.

Regarding `C[C@@H]1CCCCO[C@@H](CN(C)C(=O)Nc2ccc(F)cc2)[C@@H](C)CN([C@H](C)CO)C(=O)c2cc(NC(=O)Cc3ccccc3)ccc2O1`, the relative growth is inactive: 0.996.

As to `C[C@@H]1CN([C@H](C)CO)C(=O)c2cccc(NC(=O)c3ccno3)c2O[C@H]1CN(C)S(=O)(=O)c1cccs1`, the relative growth was inactive: 0.991.

Consider `C[C@@H]1CN([C@@H](C)CO)C(=O)c2cc(NC(=O)CCCN(C)C)ccc2O[C@@H](C)CCCCO[C@@H]1CN(C)S(C)(=O)=O`, for which the relative growth is inactive: 1.03. In the case of `Cc1noc(C)c1S(=O)(=O)Nc1ccc2c(c1)C(=O)N([C@H](C)CO)C[C@@H](C)[C@@H](CN(C)Cc1ccccc1)OCCCC[C@@H](C)O2`, the relative growth was inactive: 1.01. For `Cc1noc(C)c1S(=O)(=O)N(C)C[C@H]1Oc2ccc(NS(=O)(=O)c3ccc(Cl)cc3)cc2CC(=O)N([C@@H](C)CO)C[C@@H]1C`, the relative growth was inactive: 0.954. Turning to `O=C(CCCCCC(=O)N/N=C/[C@@H](O)[C@@H](O)[C@H](O)[C@H](O)CO)NO`, the relative growth is inactive: 0.971. To `[N-]=[N+]=NCCOCCNC(=O)CCCOc1ccc(CS(=O)c2nnc(-c3ccc(F)cc3)o2)nc1` (centres undefined) belongs inactive: 0.95; to `C[C@@H]1CCCCO[C@@H](CN(C)CC2CC2)[C@@H](C)CN([C@H](C)CO)C(=O)c2cc(NC(=O)Nc3ccc(C(F)(F)F)cc3)ccc2O1`, inactive: 0.968. Regarding `CCS(=O)(=O)Nc1ccc2c(c1)C(=O)N(C)C[C@H](OC)[C@@H](C)CN(CCC(F)(F)F)[C@H](C)CO2`, the relative growth was inactive: 0.991. As to `O=C(O)C[C@H]1NC(=O)c2ccccc21`, the relative growth is inactive: 1.02.

Consider `C[C@H](CO)N1C[C@H](C)[C@@H](CN(C)S(=O)(=O)c2cccs2)Oc2ccc(NS(=O)(=O)c3cccs3)cc2CC1=O`, for which the relative growth is inactive: 1.04. With `CCNC(=O)C[C@H]1CC[C@H](NC(=O)C2CCOCC2)[C@H](CO)O1`, the relative growth was inactive: 0.988. As for `C[C@@H]1CN([C@H](C)CO)C(=O)c2cc(NS(=O)(=O)c3ccc(Cl)cc3)ccc2O[C@H]1CN(C)C(=O)Nc1cccc2ccccc12`, the figure is inactive: 0.991; as for `Cc1cc(C)n(-c2n[nH]c(=S)n2N)n1`, inactive: 1. As for `Nc1ncnc2c1ncn2[C@@H]1O[C@@H]2CO[P@@](=O)(S)O[C@@H]3[C@H](O)[C@@H](CO[P@@](=O)(S)O[C@H]2[C@H]1O)O[C@H]3n1cnc2c(N)ncnc21`, the relative growth was inactive: 1.04. As for `C[C@@H]1CCCCO[C@H](CN(C)C(=O)Nc2ccc(F)cc2)[C@H](C)CN([C@@H](C)CO)C(=O)c2cc(NC(=O)C3CCCCC3)ccc2O1`, the figure is inactive: 1; as for `C[C@@H]1CCCCO[C@H](CN(C)S(C)(=O)=O)[C@H](C)CN([C@@H](C)CO)C(=O)c2cc(NC(=O)CCCN(C)C)ccc2O1`, inactive: 1. For the molecule `C[C@@H]1CCCCO[C@H](CN(C)C(=O)Nc2ccc3c(c2)OCO3)[C@H](C)CN([C@H](C)CO)C(=O)c2cc(NC(=O)CCC(F)(F)F)ccc2O1`, the relative growth is inactive: 1. To `CN(C)C(=O)CN1CCC2(CC1)CN(c1cncnc1)C(=O)CO2` belongs inactive: 1.01; to `COc1ccc(S(=O)(=O)N(C)C[C@H]2Oc3ccc(NC(=O)Nc4cccc5ccccc45)cc3C(=O)N([C@@H](C)CO)C[C@@H]2C)cc1`, inactive: 1.01; to `CCCNC(=O)N1CC[C@]2(CC1)CN([C@H](CO)c1[nH]c3cc(ccc3c12)OC)C(=O)CN1CCOCC1`, inactive: 0.884. As for `C[C@@H]1CCCCO[C@@H](CN(C)C(=O)CCC(F)(F)F)[C@H](C)CN([C@H](C)CO)C(=O)c2cc(NS(=O)(=O)c3ccc(F)cc3)ccc2O1`, the figure is inactive: 1.01. To `CCCNC(=O)c1cc2c(c(-c3cccc(-c4cccc(F)c4)c3)n1)[C@@H](CCO)N([S@](=O)C(C)(C)C)C2` belongs inactive: 0.964; to `Cc1ccc(S(=O)(=O)Nc2ccc3c(c2)C(=O)N([C@H](C)CO)C[C@H](C)[C@H](CN(C)C(=O)Nc2ccc(F)cc2)OCCCC[C@@H](C)O3)cc1`, inactive: 1.03; to `C[C@@H](CCO)Nc1nc2c([nH]1)c(=O)n(C)c(=O)n2C`, inactive: 1.02. As to `C[C@@H]1CN([C@@H](C)CO)C(=O)c2cc(NS(=O)(=O)c3ccc(Cl)cc3)ccc2O[C@@H](C)CCCCO[C@H]1CN(C)C(=O)CCC(F)(F)F`, the relative growth is inactive: 0.98. To `COc1ccc(S(=O)(=O)Nc2ccc3c(c2)C(=O)N([C@H](C)CO)C[C@@H](C)[C@@H](CN(C)C(=O)NC2CCCCC2)OCCCC[C@H](C)O3)cc1` belongs inactive: 0.986.

As to `COC(=O)C(CC#Cc1ccc2c(c1)[C@]1(C(=O)N2)[C@H](c2ccc(O)cc2)N2[C@H](c3ccccc3)[C@H](c3ccccc3)OC(=O)[C@H]2[C@@H]1C(=O)N1CCCCCCC1)C(=O)OC`, the relative growth is inactive: 1.04.

For the molecule `C[C@@H]1CN([C@H](C)CO)C(=O)c2cc(NC(=O)c3ccncc3)ccc2O[C@@H]1CN(C)C(=O)Nc1ccc2c(c1)OCO2`, the relative growth was inactive: 0.978.

As for `Cc1cccc(S(=O)(=O)N2C[C@H](O)COC[C@H]3O[C@@H](CC(=O)NCCCN4CCOCC4)CC[C@@H]32)c1`, the relative growth is inactive: 1. With `C[C@@H]1CN([C@@H](C)CO)C(=O)c2cccc(NC(=O)c3ccncc3)c2O[C@@H]1CN(C)S(=O)(=O)c1ccc(F)cc1`, the relative growth is inactive: 0.998. As for `C[C@H]1CCCCO[C@@H](CN(C)C(=O)Nc2cccc3ccccc23)[C@@H](C)CN([C@@H](C)CO)C(=O)c2cc(NC(=O)C3CCCCC3)ccc2O1`, the figure is inactive: 1.03. `Cc1nc(=O)c(C#N)c(NCc2cccnc2)[nH]1`: the relative growth is inactive: 0.989. `COCCOC(=O)N1C(=O)[C@@]2(c3cc(C#CCNC(N)=O)ccc31)[C@H](C(=O)N1CCCCCCC1)[C@H]1C(=O)O[C@H](c3ccccc3)[C@H](c3ccccc3)N1[C@@H]2c1ccccc1OCCO`: the relative growth was inactive: 1.02. Regarding `C[C@@H]1CN([C@H](C)CO)C(=O)c2ccccc2-c2ccccc2CO[C@@H]1CN(C)Cc1ccc(Cl)c(Cl)c1`, the relative growth is inactive: 0.995.

`C[C@@H]1CN([C@H](C)CO)C(=O)Cc2cc(NS(=O)(=O)c3ccc(Cl)cc3)ccc2O[C@H]1CN(C)S(=O)(=O)c1cn(C)cn1`: the relative growth was inactive: 0.98. To `Cc1noc(C)c1NC(=O)N(C)C[C@H]1Oc2ccc(NC(=O)NC(C)C)cc2C(=O)N([C@@H](C)CO)C[C@H]1C` belongs inactive: 0.986; to `C[C@@H]1CN([C@@H](C)CO)C(=O)c2cc(NC(=O)Cc3cn(C)c4ccccc34)ccc2O[C@@H]1CN(C)CC1CCCCC1`, inactive: 0.948; to `Cc1noc(C)c1NC(=O)N[C@@H]1C=C[C@@H](CC(=O)NCCCN(C)C)O[C@H]1CO`, inactive: 0.963. Take `COc1ccccc1CNC(=O)C[C@@H]1CC[C@H]2[C@@H](COC[C@H](O)CN2C(=O)Nc2ccc(F)cc2)O1`: the relative growth is inactive: 1.01. As for `C[C@@H]1CCCCO[C@H](CN(C)Cc2ccc3c(c2)OCO3)[C@@H](C)CN([C@H](C)CO)C(=O)c2cc(NC(=O)Nc3cccc4ccccc34)ccc2O1`, the figure is inactive: 0.98; as for `CN[C@@H]1[C@H](O)[C@H](NC)[C@H]2O[C@@]3(O)C(=O)C[C@@H](C)O[C@H]3O[C@@H]2[C@H]1O`, active: 0.0458; as for `Cc1cc(C(=O)Nc2cccc3c2O[C@H](CN(C)S(=O)(=O)c2ccc(F)cc2)[C@H](C)CN([C@H](C)CO)C3=O)n(C)n1`, inactive: 0.956. With `NCc1cn(-c2ccccc2)nc1C12CC3CC(CC(C3)C1)C2`, the relative growth is inactive: 0.352. Consider `CSc1cc(-c2ccc(Cl)cc2)nc(-c2cccs2)c1`, for which the relative growth was inactive: 0.966. As for `Cc1noc(C)c1NC(=O)N(C)C[C@@H]1Oc2ccc(NC(=O)Nc3cccc4ccccc34)cc2CC(=O)N([C@H](C)CO)C[C@H]1C`, the figure is inactive: 0.997; as for `COc1cc2c(cc1-c1coc3c4c(ccc3c1=O)OC(C)(C)CC4)OCO2`, inactive: 0.977.

`CCCOc1ccc(C(=O)OCCN(CC)CC)cc1N.Cl`: the relative growth is inactive: 0.84. As for `O=C(C[C@H]1CC[C@@H]2[C@H](COC[C@@H](O)CN2C(=O)Nc2ccc(C(F)(F)F)cc2)O1)NCCc1ccncc1`, the figure is inactive: 0.964; as for `C[C@H]1CN([C@@H](C)CO)S(=O)(=O)c2ccc(C#CC3(O)CCCC3)cc2O[C@@H]1CN(C)C(=O)Nc1ccccc1`, inactive: 0.998. In the case of `C[C@@H]1CCCCO[C@H](CN(C)CC2CCCCC2)[C@@H](C)CN([C@H](C)CO)C(=O)c2cc(NC(=O)Cc3ccccc3)ccc2O1`, the relative growth was inactive: 1.01. As for `Cc1ccc(S(=O)(=O)Nc2cccc3c2O[C@@H](CN(C)S(=O)(=O)c2ccccc2)[C@@H](C)CN([C@@H](C)CO)C3=O)cc1`, the figure is inactive: 1.02.
